Test results reported in the supplement of paper PMC4967469.
IC50 is the fitted dose that halves viability relative to control wells, and lower means more sensitive; a fit beyond the top or the lowest dose is shown as a bound at that dose. AUC is the area under the same curve over the 256-fold range up to the top dose, as a fraction; the more sensitive the line, the further below 1. For some assays here: An inferred top dose was calculated from the reported fits. For some assays here: Drugs with an entry number were screened twice under separate entries, and the two screens often disagree.

Key:
Experiment in all cases: Viability of human cancer cell lines after 72 h of drug (GDSC screen)
[1] = compound: Cc1cn(-c2cc(NC(=O)c3ccc(C)c(Nc4nccc(-c5cccnc5)n4)c3)cc(C(F)(F)F)c2)cn1 [Nilotinib]; settings: top dose 2 µM
Experimental: (§1)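 Human cancer cell lines in 384-well plates, medium with 10% serum, drug for 72 h over a 256-fold dose range (nine 2-fold or five 4-fold steps up to the top dose). Adherent lines were fixed and stained with the nucleic acid dye Syto60, suspension lines read with resazurin; signal relative to control wells, capped at 0 and 100%. One two-parameter sigmoid per drug and line, fitted in a mixed model over all curves with the slope shared within a line.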

[2] = compound: CC(C)c1ccccc1Cc1cc(C(=O)Nc2ccc(S(=O)(=O)c3ccccc3C(C)(C)C)cc2)c(O)c(O)c1O [TW-37]; settings: top dose 5 µM
Experimental: as §1

[3] = compound: CC(O)(CS(=O)(=O)c1ccc(F)cc1)C(=O)Nc1ccc(C#N)c(C(F)(F)F)c1 [Bicalutamide]; settings: top dose inferred
Experimental: as §1

[4] = compound: C/C(O)=C(\C#N)C(=O)Nc1cc(Br)ccc1Br [LFM-A13]; settings: top dose 16 µM; top dose inferred
Experimental: as §1

[5] = compound: Nc1ccn([C@@H]2O[C@H](CO)[C@@H](O)C2(F)F)c(=O)n1 [Gemcitabine]; settings: top dose 1.024 µM
Experimental: as §1

[6] = compound: S=C(NCc1ccc2c(c1)OCO2)N1CCN(c2ncnc3c2oc2ccccc23)CC1 [MP470]; settings: top dose 20 µM; top dose inferred
Experimental: as §1

[7] = compound: Cc1ccc(Nc2cc(-c3cccc(N4C(=O)c5ccccc5C4=O)c3)ncn2)cc1NS(C)(=O)=O [KIN001-270]; settings: top dose 20 µM; top dose inferred
Experimental: as §1

[8] = compound: CCNC(=O)c1noc(-c2cc(C(C)C)c(O)cc2O)c1-c1ccc(CN2CCOCC2)cc1 [AUY922]; settings: top dose 0.256 µM; top dose inferred
Experimental: as §1

[9] = compound: O=S(=O)(c1ccccc1)N(CC(F)(F)F)c1ccc(C(O)(C(F)(F)F)C(F)(F)F)cc1 [T0901317]; settings: top dose 10.24 µM; top dose inferred
Experimental: as §1

[10] = top dose 1.024 µM, screen: GDSC drug entry 150
[11] = top dose 10 µM, screen: GDSC drug entry 1502

AGS (stomach, adherent)
AUC [1]: 0.983 | IC50 [1]: > 2000 nM | AUC [2]: 0.262 | IC50 [2]: 71.5 nM | AUC [3, 10]: 0.99 | IC50 [3, 10]: > 1020 nM | AUC [4]: 0.98 | IC50 [4]: > 16000 nM | AUC [5]: 0.089 | IC50 [5]: < 4 nM | AUC [6]: 0.947 | IC50 [6]: > 20000 nM | AUC [7]: 0.972 | IC50 [7]: > 20000 nM | AUC [8]: 0.451 | IC50 [8]: 11.9 nM | AUC [9]: 0.979 | IC50 [9]: > 10200 nM

AN3-CA (endometrium, adherent)
AUC [1]: 0.976 | IC50 [1]: > 2000 nM | AUC [2]: 0.728 | IC50 [2]: 1490 nM | AUC [3, 10]: 0.985 | IC50 [3, 10]: > 1020 nM | AUC [3, 11]: 0.963 | IC50 [3, 11]: > 10000 nM | AUC [4]: 0.964 | IC50 [4]: > 16000 nM | AUC [5]: 0.56 | IC50 [5]: 94.6 nM | AUC [6]: 0.93 | IC50 [6]: > 20000 nM | AUC [7]: 0.979 | IC50 [7]: > 20000 nM | AUC [8]: 0.404 | IC50 [8]: 8.53 nM | AUC [9]: 0.979 | IC50 [9]: > 10200 nM

ASH-3 (thyroid, adherent)
AUC [1]: 0.956 | IC50 [1]: > 2000 nM | AUC [2]: 0.341 | IC50 [2]: 113 nM | AUC [3, 10]: 0.868 | IC50 [3, 10]: 934 nM | AUC [3, 11]: 0.987 | IC50 [3, 11]: > 10000 nM | AUC [4]: 0.871 | IC50 [4]: 15000 nM | AUC [5]: 0.373 | IC50 [5]: 28.5 nM | AUC [6]: 0.982 | IC50 [6]: > 20000 nM | AUC [7]: 0.988 | IC50 [7]: > 20000 nM | AUC [8]: 0.53 | IC50 [8]: 19.3 nM | AUC [9]: 0.988 | IC50 [9]: > 10200 nM

AU565 (breast, adherent)
AUC [1]: 0.979 | IC50 [1]: > 2000 nM | AUC [2]: 0.534 | IC50 [2]: 392 nM | AUC [3, 10]: 0.97 | IC50 [3, 10]: > 1020 nM | AUC [4]: 0.982 | IC50 [4]: > 16000 nM | AUC [5]: 0.388 | IC50 [5]: 30.3 nM | AUC [6]: 0.927 | IC50 [6]: > 20000 nM | AUC [7]: 0.962 | IC50 [7]: > 20000 nM | AUC [8]: 0.757 | IC50 [8]: 97.3 nM | AUC [9]: 0.974 | IC50 [9]: > 10200 nM

BFTC-905 (bladder, adherent)
AUC [1]: 0.986 | IC50 [1]: > 2000 nM | AUC [2]: 0.595 | IC50 [2]: 547 nM | AUC [3, 10]: 0.975 | IC50 [3, 10]: > 1020 nM | AUC [3, 11]: 0.981 | IC50 [3, 11]: > 10000 nM | AUC [4]: 0.978 | IC50 [4]: > 16000 nM | AUC [5]: 0.033 | IC50 [5]: < 4 nM | AUC [6]: 0.951 | IC50 [6]: > 20000 nM | AUC [7]: 0.979 | IC50 [7]: > 20000 nM | AUC [8]: 0.479 | IC50 [8]: 14.1 nM | AUC [9]: 0.965 | IC50 [9]: > 10200 nM

BHT-101 (thyroid, adherent)
AUC [1]: 0.719 | IC50 [1]: 534 nM | AUC [2]: 0.361 | IC50 [2]: 127 nM | AUC [3, 10]: 0.985 | IC50 [3, 10]: > 1020 nM | AUC [3, 11]: 0.948 | IC50 [3, 11]: > 10000 nM | AUC [4]: 0.954 | IC50 [4]: > 16000 nM | AUC [5]: 0.562 | IC50 [5]: 94.9 nM | AUC [6]: 0.931 | IC50 [6]: > 20000 nM | AUC [7]: 0.956 | IC50 [7]: > 20000 nM | AUC [8]: 0.631 | IC50 [8]: 37.2 nM | AUC [9]: 0.967 | IC50 [9]: > 10200 nM

BICR10 (head and neck, adherent)
AUC [1]: 0.984 | IC50 [1]: > 2000 nM | AUC [2]: 0.569 | IC50 [2]: 499 nM | AUC [3, 10]: 0.985 | IC50 [3, 10]: > 1020 nM | AUC [3, 11]: 0.971 | IC50 [3, 11]: > 10000 nM | AUC [4]: 0.963 | IC50 [4]: > 16000 nM | AUC [5]: 0.857 | IC50 [5]: > 1020 nM | AUC [6]: 0.971 | IC50 [6]: > 20000 nM | AUC [7]: 0.984 | IC50 [7]: > 20000 nM | AUC [8]: 0.669 | IC50 [8]: 51.1 nM | AUC [9]: 0.97 | IC50 [9]: > 10200 nM

BICR22 (head and neck, adherent)
AUC [1]: 0.874 | IC50 [1]: > 2000 nM | AUC [2]: 0.491 | IC50 [2]: 294 nM | AUC [3, 10]: 0.983 | IC50 [3, 10]: > 1020 nM | AUC [3, 11]: 0.962 | IC50 [3, 11]: > 10000 nM | AUC [4]: 0.958 | IC50 [4]: > 16000 nM | AUC [5]: 0.777 | IC50 [5]: 474 nM | AUC [6]: 0.347 | IC50 [6]: 441 nM | AUC [7]: 0.982 | IC50 [7]: > 20000 nM | AUC [8]: 0.685 | IC50 [8]: 57.3 nM | AUC [9]: 0.983 | IC50 [9]: > 10200 nM

BICR78 (head and neck, adherent)
AUC [1]: 0.968 | IC50 [1]: > 2000 nM | AUC [2]: 0.439 | IC50 [2]: 207 nM | AUC [3, 10]: 0.982 | IC50 [3, 10]: > 1020 nM | AUC [3, 11]: 0.978 | IC50 [3, 11]: > 10000 nM | AUC [4]: 0.983 | IC50 [4]: > 16000 nM | AUC [5]: 0.776 | IC50 [5]: 475 nM | AUC [6]: 0.895 | IC50 [6]: > 20000 nM | AUC [7]: 0.98 | IC50 [7]: > 20000 nM | AUC [8]: 0.795 | IC50 [8]: 140 nM | AUC [9]: 0.973 | IC50 [9]: > 10200 nM

BT-20 (breast, adherent)
AUC [1]: 0.98 | IC50 [1]: > 2000 nM | AUC [2]: 0.618 | IC50 [2]: 717 nM | AUC [3, 10]: 0.983 | IC50 [3, 10]: > 1020 nM | AUC [3, 11]: 0.982 | IC50 [3, 11]: > 10000 nM | AUC [4]: 0.974 | IC50 [4]: > 16000 nM | AUC [5]: 0.65 | IC50 [5]: 186 nM | AUC [6]: 0.91 | IC50 [6]: > 20000 nM | AUC [7]: 0.975 | IC50 [7]: > 20000 nM | AUC [8]: 0.863 | IC50 [8]: > 256 nM | AUC [9]: 0.98 | IC50 [9]: > 10200 nM

C3A (liver, adherent)
AUC [1]: 0.988 | IC50 [1]: > 2000 nM | AUC [2]: 0.781 | IC50 [2]: 2160 nM | AUC [3, 11]: 0.961 | IC50 [3, 11]: > 10000 nM | AUC [4]: 0.987 | IC50 [4]: > 16000 nM | AUC [5]: 0.261 | IC50 [5]: 12.8 nM | AUC [6]: 0.928 | IC50 [6]: > 20000 nM | AUC [7]: 0.988 | IC50 [7]: > 20000 nM | AUC [8]: 0.529 | IC50 [8]: 19.2 nM | AUC [9]: 0.988 | IC50 [9]: > 10200 nM

C-4-I (cervix, adherent)
AUC [1]: 0.986 | IC50 [1]: > 2000 nM | AUC [2]: 0.314 | IC50 [2]: 89.8 nM | AUC [3, 10]: 0.986 | IC50 [3, 10]: > 1020 nM | AUC [4]: 0.894 | IC50 [4]: > 16000 nM | AUC [5]: 0.448 | IC50 [5]: 45.7 nM | AUC [6]: 0.783 | IC50 [6]: 9210 nM | AUC [7]: 0.964 | IC50 [7]: > 20000 nM | AUC [8]: 0.551 | IC50 [8]: 22.3 nM | AUC [9]: 0.975 | IC50 [9]: > 10200 nM

C-33-A (cervix, adherent)
AUC [1]: 0.986 | IC50 [1]: > 2000 nM | AUC [2]: 0.368 | IC50 [2]: 135 nM | AUC [3, 10]: 0.986 | IC50 [3, 10]: > 1020 nM | AUC [3, 11]: 0.939 | IC50 [3, 11]: > 10000 nM | AUC [4]: 0.896 | IC50 [4]: > 16000 nM | AUC [5]: 0.164 | IC50 [5]: 6.01 nM | AUC [6]: 0.841 | IC50 [6]: 14000 nM | AUC [7]: 0.841 | IC50 [7]: 14000 nM | AUC [8]: 0.468 | IC50 [8]: 13.1 nM | AUC [9]: 0.962 | IC50 [9]: > 10200 nM

CAKI-1 (kidney, adherent)
AUC [1]: 0.972 | IC50 [1]: > 2000 nM | AUC [2]: 0.449 | IC50 [2]: 212 nM | AUC [3, 10]: 0.969 | IC50 [3, 10]: > 1020 nM | AUC [3, 11]: 0.952 | IC50 [3, 11]: > 10000 nM | AUC [4]: 0.816 | IC50 [4]: 15300 nM | AUC [5]: 0.938 | IC50 [5]: > 1020 nM | AUC [6]: 0.428 | IC50 [6]: 720 nM | AUC [7]: 0.959 | IC50 [7]: > 20000 nM | AUC [8]: 0.808 | IC50 [8]: 224 nM | AUC [9]: 0.974 | IC50 [9]: > 10200 nM
